# Test results published in ChEMBL document CHEMBL4888484, “Replenishing the malaria drug discovery pipeline: Screening and hit evaluation of the MMV Hit Generation Library 1 (HGL1) against asexual blood stage Plasmodium falciparum ,using a nano luciferase reporter read-out” (2022).
# Among all 150,000 compounds or so, about 540 (0.36%) showed an effect of 50% or more. The list shows a part of the results.
# Test system: Plasmodium falciparum
# Experiment: Primary screen in NF54 nanoGlo assay, in single point, at 2uM, 72h; a lower Z score goes with more inhibition
# Assay type: functional, Erythrocyte
# Conditions: timepoint 72 hour
Structure (SMILES),% Inhibition [%],Z score
O=C(c1cc[nH]n1)N1CC[C@H](OCCCc2ccccc2)C1,10,-1.83
O=C(CCCn1cnnn1)Nc1nc2ccc(F)cc2s1,-14,1.69
CN1CCN(C(=O)CC[C@H]2CCCN(C(=O)c3cc(C#N)cn3C)C2)CC1,-4,0.66
FC(F)(F)COc1ccc(OCc2noc3c2CCCC3)cc1,-6,1.02
COc1ccc(CN2CC[C@]3(OC)CC[C@H](Oc4ccccn4)C[C@H]23)c(F)c1,-4,0.67
CCN1CCCN(C(=O)c2ccc(OC)cc2)CC12CCOCC2,-2,0.19
OCC1(O)CN(c2nc(C(F)F)nc3ccc(Cl)cc23)C1,-8,0.9
CCc1ccc(OCCN(C)C(=O)c2ncccc2C)cc1,-6,0.76
O=C(NCCc1nc(-c2ccccc2)no1)c1cn(Cc2cccc3ccccc23)nn1,6,-0.83
COCCc1nc(-c2ccc(N3CCN(C)CC3)cc2)n(C(C)(C)C)n1,18,-2.39
C[C@H]1CCN(c2ccc(NC(=O)NCC3(CO)CC3)cc2)C1,-22,2.25
Cc1ccc(NC(=O)c2ccc(=O)n(CCC(=O)N3CCC(C)CC3)n2)cc1C,-10,1.38
O=C(c1cccc(Br)c1)N1CCC(n2nccn2)CC1,-6,0.72
CO[C@H]1C[C@@H](CO)N(Cc2nnc(C)s2)C1,2,-0.23
Cc1cc(C)c(S(=O)(=O)N2CCc3c(c(CN(C(=O)c4ccc(F)cc4)c4ccccc4)nn3C)C2)c(C)c1,-9,0.78
Fc1ccc(CNc2ccc(-c3nc(-c4ccccc4)no3)nn2)cc1,2,-0.22
Cc1ccc(NC(=NC(=O)C(Cl)(Cl)Cl)Nc2ccc(C)cc2)cc1,-9,1.09
CC(C)COc1ccc(C(C)(C)C(=O)N2C[C@H]3CNC[C@H]3C2)cc1,3,-0.5
CCc1ccc(CNC[C@]2(c3cccc(F)c3)CCOC2)nc1,4,-0.55
COc1ccc2c(c1)N1CCN(Cc3ccc(F)cc3)CC1C(C(=O)NCc1ccncc1)C2 (configuration not stated),5,-0.67
Cc1ncccc1OCCO[C@@H]1CCCCO1,-16,1.84

Structure (SMILES),% Inhibition [%],Z score
O=C(Nc1cccnc1)c1ccnc(OCC2CC2)c1,-30,5.61
O=C(NCCNc1cc(N2CCCC2)cnn1)c1cccc(Cl)c1,-11,1.71
C=CCN(CC=C)C(=O)Cn1c(-c2cccc(OC)c2)csc1=O,1,-0.15
COc1ccc(Nc2nn3c(c2NC(=O)c2ccc(C)cc2)N=C(C)CC3=O)cc1,-9,1.54
Cc1ccc(Cc2ccccc2C(=O)N2CCC[C@H]2CO)cc1F,-18,1.77
CCn1c[n+](CC(=O)c2ccc(Cl)cc2Cl)cn1,-10,0.89
C=CCCC(=O)N[C@@H](C)Cc1ccoc1,0,-0.05
O=C(c1ccccc1C(F)(F)F)N1C[C@@H]2C[C@H]1C(=O)N2c1ccccc1Cl,-9,1.78
Cc1cc(=O)[nH]c(NCCn2cnc(-c3ccccc3)c2-c2ccc(C)o2)n1,10,-0.88
Cc1nc(C[C@H]2CNCCO2)n(-c2ccc(Cl)cc2C)n1,-7,1.32
NC(=O)[C@H]1CCCN(Cc2ccc(NCc3ccc(F)cn3)cc2)C1,-9,1.18
CN1CCN(C(=O)c2cc3c(s2)CCCCC3)CC1,-13,1.84
O=C(CCN1CCC2(CCO2)CC1)NCc1cccc(Cl)c1,-10,1.76
Cc1cc(F)ccc1NC(=O)CN1C[C@H]2C[C@H](O)[C@@H](O)C[C@H]2C1,-7,1.3
O=C1NCCCCC1NC(=O)N1CCCC1c1nc2ccccc2s1 (configuration not stated),6,-0.75
Cc1nc(C)c2c(=O)n(-c3ccccc3)c(=O)[nH]c2n1,-12,1.61
COc1ccc(Cn2cc([C@H](CC(=O)NCc3ccccc3)c3ccc(Cl)c(C(F)(F)F)c3)c3ccccc32)cc1,10,-1.25
FC(F)(F)Cn1nnnc1CN1CCC=C(c2ccccc2)C1,-12,1.71
Cc1cccc(NC(=O)[C@@H]2CCCN2S(=O)(=O)c2ccc3c(c2)NC(=O)CO3)c1C,4,-0.67
CCc1sc(C(=O)NC2(c3ncon3)CCOCC2)cc1C,-16,2.22
